Laboratory results taken from PubChem BioAssay AID1768 (National Center for Advancing Translational Sciences (NCATS), 2009).
The whole screen tested about 270,000 compounds, of which about 620 (0.23%) were called active. This list was built around the results that the source calls inconclusive (neither active nor inactive); the mix of calls is not that of the screen. Calls follow the shape of the dose curve; as a rule, active = well fitted inhibition curve with a large enough effect in the polarisation, with a control signal flat (not every such curve was filed as active); inconclusive = small, poorly fitted or top-dose-only effect, or effect the other way, or a change in a side signal; inactive = no such curve, though single readings can be large or run the other way; the % refers to the polarisation. Where the call is inconclusive, the potency comes from a doubtful curve fit. A note “side channel” means that the fit belongs to a control or component signal, not to the main read-out.

Target: Menin (Homo sapiens) (UniProt O00255)
Sequence of UniProt O00255 (O00255 whole entry, looked up): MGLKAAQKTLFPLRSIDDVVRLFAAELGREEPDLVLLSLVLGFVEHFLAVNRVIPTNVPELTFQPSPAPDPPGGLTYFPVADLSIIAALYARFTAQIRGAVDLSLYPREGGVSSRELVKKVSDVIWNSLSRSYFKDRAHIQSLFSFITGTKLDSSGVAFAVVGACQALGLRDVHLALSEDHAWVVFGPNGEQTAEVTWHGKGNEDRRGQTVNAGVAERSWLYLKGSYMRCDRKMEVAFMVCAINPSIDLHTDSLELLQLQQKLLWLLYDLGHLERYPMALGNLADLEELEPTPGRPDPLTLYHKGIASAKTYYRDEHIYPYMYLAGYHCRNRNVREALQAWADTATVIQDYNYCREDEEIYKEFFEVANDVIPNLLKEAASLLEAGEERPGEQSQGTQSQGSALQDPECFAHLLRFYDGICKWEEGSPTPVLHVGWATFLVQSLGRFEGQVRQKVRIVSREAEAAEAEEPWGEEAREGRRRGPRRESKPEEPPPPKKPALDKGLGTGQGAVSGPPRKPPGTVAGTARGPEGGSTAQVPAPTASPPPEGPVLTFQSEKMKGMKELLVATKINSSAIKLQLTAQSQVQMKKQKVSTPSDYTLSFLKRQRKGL
Test: qHTS Assay for Inhibitors Targeting the Menin-MLL Interaction in MLL Related Leukemias: Competition With Texas Red Labeled MLL-derived Mutant Peptide; as to FP activity change, negative = inhibition: % of control where 0% means no effect
Details: fluorescence polarization; FP activity change, negative = inhibition: at 61.6 µM (top of the series)
Potency is read from the fitted curve at half-maximal effect; tags tell the direction and shape of the fitted curve or compound fluorescence and quenching.

| SMILES | FP activity change, negative = inhibition | Potency |
| --- | --- | --- |
| COc1cccc(-c2ccc3ncnc(N4CCNCC4)c3c2)c1 | inactive: -9.02% |  |
| CC(=O)OCCBr | inactive: 16.1% |  |
| COc1ccc(OC)c2c1C(=O)c1ccccc1C2=O | inactive: -17.1% |  |
| CC12CC(c3ccccc3O1)N(C(=O)c1ccco1)C(=S)N2c1ccc(F)cc1 (stereo not drawn) |  | inconclusive: 22.4 µM [quencher, side channel, partial curve] |
| O=C1/C(=C\c2cc(Br)cc(Br)c2O)SC(=S)N1Cc1ccccc1 |  | inconclusive: 7.08 µM [fluorescent, full curve, poor fit] |
| CCCc1c(C(=O)N/N=C/C(C)=C/c2ccccc2)nnn1-c1nonc1N |  | inconclusive: 11.2 µM [quencher, side channel, partial curve] |
| Cc1cc2c(c(=O)n1CCc1ccccc1)C(c1ccco1)C(C#N)=C(N)O2 (stereo not drawn) |  | inconclusive: 35.5 µM [fluorescent, side channel, single point] |
| O=C1c2ccccc2C(=O)c2c(NCc3cccnc3)cccc21 |  | inconclusive: 11.2 µM [inhibitor, partial curve] |
| CCOc1ccc(CNC(=S)N/N=C\c2ccc([N+](=O)[O-])cc2)cc1 |  | inconclusive: 10 µM [quencher, side channel, partial curve] |
| Oc1c(C(c2cccs2)N2CCN(c3ccccc3)CC2)ccc2cccnc12 (stereo not drawn) | inactive: 7.86% |  |
| Cc1ccc2c(C)c(C(=O)N3CCN(Cc4ccc5c(c4)OCO5)CC3)oc2c1C |  | inconclusive: 7.94 µM [fluorescent, side channel, full curve] |
| CC(=O)c1ccc(Nc2nc3ccccc3nc2NS(=O)(=O)c2cccs2)cc1 |  | inconclusive: 3.16 µM [quencher, partial curve] |
| O=c1nc2n(c3c4c(sc13)CCC4)CCC2 |  | inconclusive: 10 µM [inhibitor, partial curve, poor fit] |
| COc1ccc(/C=C2\SC(=S)N(CC(=O)OCC(=O)Nc3ccc([N+](=O)[O-])cc3OC)C2=O)cc1 |  | inconclusive: 11.2 µM [quencher, side channel, partial curve] |
| O=C(Nc1cc([N+](=O)[O-])ccc1O)c1cccc(NC(=O)c2ccco2)c1 |  | inconclusive: 22.4 µM [quencher, single point] |
| COCc1ccc(O)c2ncccc12 | inactive: -9.71% |  |
| O=c1[nH]c(=O)c2ncc(-c3ccc(Cl)cc3)nc2[nH]1 |  | inconclusive: 39.8 µM [inhibitor, single point] |
| CC(NC(=O)C(=O)N/N=C\c1cccc([N+](=O)[O-])c1)c1ccccc1 (stereo not drawn) |  | inconclusive: 25.1 µM [quencher, side channel, partial curve] |
